Experimental data reported in PMC6919601, “Identification of Plasmodium dipeptidyl aminopeptidase allosteric inhibitors by high throughput screening” (PLoS ONE, 2019).
The whole screen tested about 110,000 compounds, of which about 230 (0.21%) showed an effect of 50% or more. Some of the results follow.

What follows are compounds tested against DPAP1 (Plasmodium falciparum, UniProt Q8IIJ9) (assay: primary screen, percent inhibition; read by cleavage of a fluorogenic dipeptide substrate; higher = more effect of the substance).
Chain of DPAP1 (Q8IIJ9 whole entry, looked up): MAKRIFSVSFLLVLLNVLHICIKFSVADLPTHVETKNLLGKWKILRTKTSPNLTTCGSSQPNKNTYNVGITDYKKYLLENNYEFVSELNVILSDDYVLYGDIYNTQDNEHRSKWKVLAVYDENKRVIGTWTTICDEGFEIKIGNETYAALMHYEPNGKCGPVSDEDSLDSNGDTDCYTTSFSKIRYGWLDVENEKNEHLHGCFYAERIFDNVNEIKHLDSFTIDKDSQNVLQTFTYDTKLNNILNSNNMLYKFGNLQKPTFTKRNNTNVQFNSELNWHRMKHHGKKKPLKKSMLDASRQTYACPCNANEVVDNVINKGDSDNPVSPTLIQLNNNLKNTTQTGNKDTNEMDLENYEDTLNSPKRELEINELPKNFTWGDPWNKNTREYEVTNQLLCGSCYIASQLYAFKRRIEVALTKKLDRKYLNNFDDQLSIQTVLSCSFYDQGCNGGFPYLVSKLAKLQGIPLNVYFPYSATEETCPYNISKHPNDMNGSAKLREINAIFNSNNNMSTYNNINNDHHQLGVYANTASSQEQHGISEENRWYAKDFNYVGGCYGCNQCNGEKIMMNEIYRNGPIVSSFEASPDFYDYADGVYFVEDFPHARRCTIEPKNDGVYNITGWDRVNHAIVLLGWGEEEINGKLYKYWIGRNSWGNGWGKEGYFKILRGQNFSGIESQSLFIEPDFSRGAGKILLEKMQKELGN
Set-up: species or system P. falciparum D10 trophozoite lysates; single well
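Note: 30 min substrate incubation versus DMSO and 10 µM JCP410 controls.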

SMILES | % Inhibition @ 10 uM [%]
Cc1ccc2ncc(NC(=O)NCCCn3ccnc3)c(O)c2c1 | 6.92
CCOC(=O)N1CCN(C(=O)c2ccc(CN(c3ccc(C)c(C)c3)S(C)(=O)=O)cc2)CC1 | -1.98
O=C(NCCN1CCOCC1)c1ccc(Cn2c(SCc3ccccc3)nc3cccnc32)cc1 | 0.95
CS(=O)(=O)N(CC(=O)N1CCN(c2ccc(F)cc2)CC1)C1CCCCC1 | 2.4
O=[N+]([O-])c1ccc([S+](O)N(c2ccccn2)C2CCCCC2)cc1 (stereo not drawn) | 2.65
COc1cccc(/C=C/C(=O)C2C(=O)c3ccccc3C2=O)c1 | -1.03
CSc1ccc(CNC(=O)CCC(=O)N2CC=C(c3c[nH]c4ccccc34)CC2)cc1 | -2.01
CC1CC(Nc2ccccc2)c2ccccc2N1C(=O)COc1ccc(F)cc1 (stereo not drawn) | 3
CCOC(=O)c1sc2nc(C)nc(NCc3ccccc3OC)c2c1C | -4.74
O=C(NCC1CCCCC1)c1nc(CS(=O)(=O)c2ccccc2)no1 | 3.56
COc1ccccc1CN1CCN(C(=O)c2c(OC)cccc2OC)CC1 | 4.55
COc1ccc(CN2CCN(C3CCN(Cc4ccccc4)CC3)CC2)c(OC)c1 | -4.57
CC(C)OCCCNC(=O)Cc1cn(C)c2ccccc12 | 2.28
O=C1NC(=O)/C(=C\c2ccccc2OCc2ccccc2)S1 | 3.25
CC(=O)NCC/N=C/c1sc2ccccc2c1O | -6.7
COc1ccc2nc(NC(=O)Cn3ncc4c5ccccc5nc-4c3O)sc2c1 | -6.37
Cc1ccccc1NC(=O)CC1S/C(=N\c2ccccc2)N(C)C1=O (stereo not drawn) | 2.92
COc1cc(CN2C[C@@H]3C[C@H](C2)c2cccc(=O)n2C3)ccc1O | -1.85
Cc1cccc(/C=C2\N=C(c3ccccc3C)OC2=O)c1 | 2.92
Cc1noc(C(=O)NC(C)C)c1Cl | -5.49
CCOc1ccc(CCNc2ncnc3onc(C)c23)cc1 | 4.09
Cn1c(=O)c2c(nc(Cl)n2Cc2ccc(F)cc2)n(C)c1=O | 7.76

SMILES | % Inhibition @ 10 uM [%]
Cn1c(SCC(=O)Nc2cccc(Cl)c2)nc2ccccc21 | -3.23
CCN(CC)C(=O)COc1ccc(-c2nnc(N3CCCCC3)c3ccccc23)cc1 | -1.47
CC(=O)N/C(=C\c1ccccc1)C(=O)Nc1ccc(Cl)cc1 | -6.99
Cn1cccc1/C=C1\Cc2ccccc2C1=O | -0.503
CC(=O)Nc1ccc(NC(=O)c2ccc(N(Cc3ccccc3C)S(C)(=O)=O)cc2)cc1 | -3.77
CCCCN(Cc1cc2cccc(C)c2nc1O)S(=O)(=O)c1ccccc1 | 1
COc1ccc(C(=O)Cc2cccc(OC)c2C(=O)N(C)C)cc1OC | -1.32
COc1ccc(NC(=O)COc2ccc3oc4c(c3c2)CCCC4)cc1 | 2.44
COc1ccc(/C=C2/N=C(c3ccc(OC)c(OC)c3)OC2=O)cc1OC | -3.44
COc1ccccc1Cc1nnc(C(=O)NC2CCCC2)o1 | 2
Cc1ccccc1CN1CCN(Cc2ccccc2C(F)(F)F)CC1 | 8.6
CCn1c(C(=O)O)c(CNCCCc2ccccc2)c2ccccc21 | -5.05
CCCCNC(=O)c1ccc(CS(=O)(=O)c2ccc(OC)cc2)o1 | 5.34
COc1ccc(/C=C(\C#N)C(N)=S)c(OC)c1OC | 1.42
O=C(Nc1nn2c(-c3cccs3)nnc2s1)c1cccs1 | 4.86
CCn1c2ccccc2c2cc(C=C(C#N)C#N)ccc21 | -0.597
CN(C)CCNC(=O)c1ccc(CS(=O)(=O)c2c(Cl)cccc2Cl)o1 | -2.72
COc1ccc(Br)cc1C1C(C#N)=C(N)OC2=C1C(=O)CC(C)(C)C2 (stereo not drawn) | 5.9
COc1ccc(-n2cc(-c3ccccc3)c3c(NCCOCCO)ncnc32)cc1 | 9.07
CCc1cc2ccccc2c[n+]1CC | -4.75
COc1cc(OC)cc(C(=O)NC23CC4CC(CC(C4)C2)C3)c1 | 1.24
Cn1c(NCc2ccccc2Cl)nc2c1c(=O)n(Cc1cccc(Cl)c1)c(=O)n2C | 0.279

SMILES | % Inhibition @ 10 uM [%]
O=C1OCC(Cn2c3ccccc3c3ccccc32)O1 (stereo not drawn) | -0.693
CCCN1CCN(C(=O)c2cc3c(s2)-c2ccccc2S(=O)(=O)C3)CC1 | 2.84
O=C(Nc1ccccc1C(=O)NCCN1CCOCC1)c1ccc(Cl)cc1Cl | 8.06
N#Cc1c(-c2ccncc2)cc(-c2ccc(F)cc2)nc1N | -1.33
Cc1ccc(C(=O)Nc2nc3ccccc3s2)o1 | 0.35
Cc1cc(O)nc2c1cnn2C1CCCCC1 | -5.91
CCCCNC(=O)C(C)N(c1ccc(OC)cc1)S(C)(=O)=O (stereo not drawn) | -8.31
CCOCCCNCc1cccc(C)c1 | 3.66
Cc1cccc2sc(NC(=O)CN(C)S(=O)(=O)c3cccs3)nc12 | 1.16
O=C(NC1CCCCCC1)c1csc2c1CCCC2 | 1.61
COc1ccc2nc(NC(=O)c3ccc(F)cc3)sc2c1 | 4.54
Cc1ccccc1NC(=O)c1cc(S(N)(=O)=O)ccc1Cl | -5.15
CC(Cc1ccc(F)cc1)N1CCN(c2ccccc2)CC1 (stereo not drawn) | -4.04
Cn1cc(C(=O)Nc2ccc3c(c2)CCC3)cn1 | 1.02
O=C(Nc1ccncc1)c1cc(-c2ccccc2Cl)nc2ccccc12 | 2.44
CC(=O)c1ccc(NC(=O)C2COc3ccccc3O2)cc1 (stereo not drawn) | -12.3
O=C(c1ccco1)N1CCN(C(=O)c2cc(-c3ccccc3F)no2)CC1 | -4.49
COc1ccc(NC(=O)CC2Sc3ccc(C(F)(F)F)cc3NC2=O)cc1 (stereo not drawn) | 2.92
Cc1cc(C(F)F)nn1CC(=O)Nc1cccc(F)c1 | 1.67
COc1cccc(C2C(C(=O)Nc3ccccc3)=C(C)N=c3s/c(=C/c4ccsc4)c(=O)n32)c1 (stereo not drawn) | -3.77
O=C(CN1C(=O)c2ccccc2C1=O)Nc1nc2n(n1)C(c1ccc(F)cc1)CC(c1ccccc1)N2 (stereo not drawn) | -0.671
Cn1c2c(c(=O)n(C)c1=O)C(c1ccc(OCc3ccccc3)cc1)C1=C(O)c3ccccc3C1=N2 (stereo not drawn) | 7.1
